The source of these data is article PMC4336329 (PLoS ONE, 2015).

Each structure is given as a SMILES string. Among all 310,000 compounds or so, about 14,000 (4.5%) showed an effect of 50% or more. The effect is printed as a negative number. Some of the results follow.
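Also: peak tail current of the secondary pulse compared with the same well before compound.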

For the experiment, the target named is human ether-à-go-go-related gene (hERG) potassium channel (human, UniProt Q12809). The experiment can be described thus: primary screen, population patch clamp on CHO cells stably expressing hERG.
human ether-à-go-go-related gene (hERG) potassium channel, sequence (Q12809 whole entry, looked up): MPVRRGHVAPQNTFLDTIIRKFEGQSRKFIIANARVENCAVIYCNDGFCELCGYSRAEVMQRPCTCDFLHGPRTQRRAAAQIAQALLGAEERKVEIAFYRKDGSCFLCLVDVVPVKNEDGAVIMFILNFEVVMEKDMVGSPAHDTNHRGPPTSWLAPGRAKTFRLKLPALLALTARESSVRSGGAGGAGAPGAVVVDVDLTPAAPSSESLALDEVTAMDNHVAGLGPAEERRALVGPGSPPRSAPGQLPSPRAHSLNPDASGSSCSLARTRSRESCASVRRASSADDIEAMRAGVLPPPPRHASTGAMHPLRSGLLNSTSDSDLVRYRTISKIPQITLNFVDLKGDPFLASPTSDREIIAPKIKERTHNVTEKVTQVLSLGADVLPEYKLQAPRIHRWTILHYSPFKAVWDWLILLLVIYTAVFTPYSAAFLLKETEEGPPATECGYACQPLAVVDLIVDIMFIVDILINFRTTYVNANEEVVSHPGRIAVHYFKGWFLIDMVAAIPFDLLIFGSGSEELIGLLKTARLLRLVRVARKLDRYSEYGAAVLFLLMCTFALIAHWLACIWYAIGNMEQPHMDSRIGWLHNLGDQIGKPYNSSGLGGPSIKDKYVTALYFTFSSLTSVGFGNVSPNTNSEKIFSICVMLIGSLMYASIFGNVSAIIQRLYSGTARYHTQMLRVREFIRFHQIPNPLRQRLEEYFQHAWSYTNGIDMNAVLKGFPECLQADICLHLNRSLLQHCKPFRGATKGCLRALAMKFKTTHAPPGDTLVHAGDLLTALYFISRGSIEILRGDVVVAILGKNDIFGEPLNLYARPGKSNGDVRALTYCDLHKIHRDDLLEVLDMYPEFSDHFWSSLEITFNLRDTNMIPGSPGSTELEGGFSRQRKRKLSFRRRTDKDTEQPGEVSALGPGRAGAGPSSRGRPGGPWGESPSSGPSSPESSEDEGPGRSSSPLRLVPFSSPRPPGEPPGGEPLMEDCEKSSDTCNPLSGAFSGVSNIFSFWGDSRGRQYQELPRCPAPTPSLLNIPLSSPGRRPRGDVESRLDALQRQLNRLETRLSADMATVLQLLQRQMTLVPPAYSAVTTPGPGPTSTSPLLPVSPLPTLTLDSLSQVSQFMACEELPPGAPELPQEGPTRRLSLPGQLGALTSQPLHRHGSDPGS
For the molecule `COc1ccc(C(=O)CSc2n[nH]c(=O)n2Cc2ccco2)cc1`, the “hERG current change (%, negative = inhibition) at 10uM” value is listed as -0.235%. As for `CC1=CN2C(=NC(=O)CC2(C)C(=O)N(CC(=O)NC2CCCC2)c2ccccc2C)C=C1` (stereo not shown), the “hERG current change (%, negative = inhibition) at 10uM” value is 8.47%.

In the case of `CSCCC(NC(=O)c1ccccc1Cl)C(=O)Nc1ccc(C)c(S(=O)(=O)N2CCOCC2)c1` (stereo not shown), the “hERG current change (%, negative = inhibition) at 10uM” value is recorded as -5.23%. The same measure for `CCCCNC(=O)COC(=O)c1cc(F)c(F)cc1Cl`: 13.6%; for `COc1ccccc1NC(=O)/C(=C/c1ccncc1)NC(=O)c1ccccc1`: -10.6%; for `CCN1CCCC1CNC(=O)c1cc(S(=O)(=O)N(C)C)ccc1Cl` (stereo not shown): 8.24%. The same measure for `CCOc1cc(CNCCSc2nnnn2C)cc(Br)c1OCc1ccccc1F.Cl`: -22.3%. The same measure for `Cc1nc(SCc2ccc(O)c([N+](=O)[O-])c2)n[nH]1`: 13.9%. With `COc1cc(OC)cc(C(=O)NCCCN2CCN(CCCNC(=O)c3cc(OC)cc(OC)c3)CC2)c1`, the “hERG current change (%, negative = inhibition) at 10uM” value is on record as -48.8%.

`CC(=O)Nc1nc(CC(C)C)cc(-c2ccccc2)c1C#N`: the “hERG current change (%, negative = inhibition) at 10uM” value stood at 4.98%. As for `CC(C)(O)C#Cc1ccc(C(=O)N2CCN(C(=O)c3ccco3)CC2)cc1`, the “hERG current change (%, negative = inhibition) at 10uM” value was -2.64%.

As to `Cc1cc(C)c2nc(N3CCC(C(=O)NCCN4CCOCC4)CC3)sc2c1`, the “hERG current change (%, negative = inhibition) at 10uM” value is on record as -10.5%. The value for `N#Cc1ccc(C(=O)Nc2ccn(-c3ccccc3)n2)cc1` was -15.9%; that for `Cc1ccc(S(=O)(=O)N(C)C)cc1NC(=S)NNC(=O)C1CC1` was -54.6%. The value for `CCn1nc(C)c(CN2CCC(C(=O)Nc3cccc(-c4cccc(Cl)c4)c3)CC2)c1C` was -65%; that for `CCCCN(CC)C(=O)Cn1cnc2ccc(S(=O)(=O)N3CCC(C)CC3)cc2c1=O` was -57%. As for `O=C(O)c1ccccc1NS(=O)(=O)c1ccccc1C(F)(F)F`, the “hERG current change (%, negative = inhibition) at 10uM” value is on record as 3.88%. The same measure for `O=C(Nc1ccc2c(c1)CCC2)c1cc2ccccc2o1`: -0.479%; for `CCc1cc(C(=O)c2ccc(OC)cc2)c(NC(=O)CCC(=O)O)s1`: 2.58%.

On to `Cc1ccc2nc(C)c(C(=O)N/N=C/c3cccc([N+](=O)[O-])c3)cc2c1`, for which the “hERG current change (%, negative = inhibition) at 10uM” value is -37.1%.

Regarding `COc1cccc(NC(=O)CSCc2n[nH]c(=O)[nH]2)c1`, the “hERG current change (%, negative = inhibition) at 10uM” value amounted to 19.4%.

On to `Cc1c(C(=O)N2CCOCC2)sc(NC(=O)c2ccc3c(c2)OCO3)c1C#N`, for which the “hERG current change (%, negative = inhibition) at 10uM” value amounted to 8.15%. The value for `CCN1CCN(C(c2ccccc2)c2nnnn2Cc2ccccc2)CC1.Cl` (stereo not shown) was -27.4%; that for `O=C(N/N=C1/CC2CCC1C2)c1cc2ccccc2cc1O` (stereo not shown) was 10.6%. The same measure for `Cc1c(NC(=O)CSc2nnc(-c3ccco3)n2-c2ccccc2)c(=O)n(-c2ccccc2)n1C`: 5.6%; for `O=C(N/C(=C\c1ccco1)C(=O)N1CCCC1)c1cccs1`: -9.62%; for `CC(=O)c1ccc(NC(=O)CN2C(=O)NC(C)(c3ccc4c(c3)OCCO4)C2=O)cc1` (stereo not shown): 1.1%. The same measure for `Cc1csc(NC(=O)c2ccc(C)o2)n1`: 6.8%; for `O=C(COc1ccc(S(=O)(=O)N2CCCC2)cc1[N+](=O)[O-])N1CCCC1`: -4.62%; for `CCCC1(C(=O)OCC)NC(c2ccc(OC)cc2OC)C2C(=O)N(c3ccccc3)C(=O)C21` (stereo not shown): 0.0733%. With `CC(=O)NC1Sc2ccccc2N=C1c1ccccc1` (stereo not shown), the “hERG current change (%, negative = inhibition) at 10uM” value stood at 14.1%. The value for `COc1ccc(C)cc1NC(=O)C(Sc1ccccc1)c1ccccc1` (stereo not shown) was 2.29%.

Turning to `Cc1ccc(C)c(CN2CCC(CNC(=O)CCc3nnc4ccc(N5CCCCC5)nn34)CC2)c1`, the “hERG current change (%, negative = inhibition) at 10uM” value is -30.3%.

Take `Cn1c(=O)c2cc(S(=O)(=O)NCCC(=O)NCCC3=CCCCC3)ccc2n(C)c1=O`: the “hERG current change (%, negative = inhibition) at 10uM” value is -15.8%. The same measure for `Clc1cccc(Cl)c1OCCOCCNCc1ccccc1.O=C(O)C(=O)O`: -31.2%; for `Cc1cccc(NC(=S)NC(=O)/C=C/c2ccco2)c1`: 4.02%; for `COc1ccc(NC(=O)Nc2ccon2)cc1OC`: -5.22%. The value for `O=[N+]([O-])c1ccc(N2CCN(c3ccccc3)CC2)cc1` was 4.77%. Consider `OC[C@H]1O[C@@H](n2cnc3c(NC4CCCC4)ncnc32)[C@H](O)[C@@H]1O`, for which the “hERG current change (%, negative = inhibition) at 10uM” value is on record as 10.4%.

For `Cc1cccc(C(=O)N2N=C(c3ccc(NS(C)(=O)=O)cc3)CC2c2cccs2)c1` (stereo not shown), the “hERG current change (%, negative = inhibition) at 10uM” value was -8.44%.

`COc1ccc(-c2cc(-c3ccccc3)n3ncnc3n2)cc1`: the “hERG current change (%, negative = inhibition) at 10uM” value was -60.9%. For the molecule `Cc1ccc(C2(C)NC(=O)N(CC(=O)NNC(=O)c3ccoc3C)C2=O)cc1` (stereo not shown), the “hERG current change (%, negative = inhibition) at 10uM” value was found to be 26.6%. Take `COCCCn1c(C)nnc1SCC(=O)NNC(=O)COc1ccc(Cl)cc1`: the “hERG current change (%, negative = inhibition) at 10uM” value is given as 22.6%. With `COCC(=O)Nc1ccccc1-c1ccccc1`, the “hERG current change (%, negative = inhibition) at 10uM” value is given as 22.9%. The same measure for `Cc1ccc(C(=O)NCCCNC(=O)c2ccco2)cn1`: 15.9%; for `CCCC(=O)C1=C(O)C(C(=O)OC)C(C)(C)CC1=Nc1ccc(N)cc1` (stereo not shown): -33.8%; for `Cc1ccc(C)c(-n2cc(CN3CCNC(=O)CC3)c(-c3ccccc3)n2)c1`: -43.5%. With `COC(=O)Cn1c(=NC(=O)c2ccc(Cl)s2)sc2cc(C)ccc21`, the “hERG current change (%, negative = inhibition) at 10uM” value was found to be 30.8%. On to `CC(C)(C)NC(=O)C1N(c2cccnc2)C(=O)C2C(C(=O)Nc3ccccc3)C3(C)C=CC21O3` (stereo not shown), for which the “hERG current change (%, negative = inhibition) at 10uM” value was -10.5%.

For `COc1cc(/C=C/C(=O)N(C)c2ccccc2C(=O)O)cc(OC)c1OC`, the “hERG current change (%, negative = inhibition) at 10uM” value came to 3.92%. The same measure for `CN(CC(=O)NCc1ccccc1)S(=O)(=O)c1cnc[nH]1`: 9.43%; for `COc1ccccc1CNC(=O)COC(=O)Cc1c(F)cccc1Cl`: 8.03%; for `COc1ccc(S(=O)(=O)Nc2nc3ccccc3nc2Nc2cccc(C(=O)O)c2)cc1`: 8.16%. The value for `Cc1ccc(-n2ncc3c(NCc4ccco4)ncnc32)c(C)c1` was -8.98%; that for `CSc1cccc(NC(=S)N2CCC(N(C)C(C)C)CC2)c1` was -16.2%; that for `COc1ccc(S(=O)(=O)Nc2nc3c(s2)CCCC3)cc1` was 12.4%.

`O=C(COc1ccccc1Cl)NCCNC(=O)c1cnccn1`: the “hERG current change (%, negative = inhibition) at 10uM” value is reported as 5.82%. The value for `O=C(NCc1cccc(Cl)c1)c1ccc(CS(=O)Cc2ccc(Cl)cc2)o1` (stereo not shown) was -62.1%; that for `CCN1C(=O)/C(=C/c2cnn(CC)c2C)SC1=S` was 5.73%.

Take `COc1ccc(C(=O)N/N=C(/C)c2cccc(NC(=O)C(F)(F)F)c2)cc1`: the “hERG current change (%, negative = inhibition) at 10uM” value stood at 10.7%. Take `Cn1cnc([N+](=O)[O-])c1Sc1ccccc1`: the “hERG current change (%, negative = inhibition) at 10uM” value was -3.21%. The value for `CCOC(=O)n1c(=O)n(Cc2ccc(F)cc2)c2ccccc21` was -36.2%; that for `Cc1ccc(OCC(=O)Nc2cccnc2Cl)cc1C` was 16.3%. The same measure for `N#Cc1ccc(NC(=O)Cn2cnc(S(=O)(=O)N3CCOCC3)c2)cc1`: 11.9%; for `Cc1cccc(NC(=O)N[C@@H](C)C(=O)O)c1`: -3.03%; for `COc1ccc(-c2cc(C)no2)cc1S(=O)(=O)N1CCOc2ccc(C)cc21`: 18.8%. The same measure for `CCOc1cc2[nH]c(=O)n(CCC(=O)N3CCN(c4ccccc4OC)CC3)c(=O)c2cc1OCC`: 2.3%; for `COc1cccc(NC(=O)c2cnsn2)c1`: 3.19%; for `Cc1nc(NCc2ccco2)nc2c1C(=O)CC(C)C2` (stereo not shown): -10.2%.

For the molecule `CO/N=C/C(C(C)=O)C(=O)Nc1ccc(Cl)cc1Cl` (stereo not shown), the “hERG current change (%, negative = inhibition) at 10uM” value turned out to be 16.1%. The value for `C=CCNc1nc2ccccc2nc1NS(=O)(=O)c1ccc(Br)cc1` was 9.13%; that for `Cc1cc(C)cc(Nc2nc3c([nH]2)c(=O)n(C)c(=O)n3C)c1` was 0.688%. As to `COc1ccc(C(=O)Nc2cc(C)on2)cc1S(=O)(=O)N1CC(c2ccccc2)CC1=O` (stereo not shown), the “hERG current change (%, negative = inhibition) at 10uM” value amounted to 16.8%.

Turning to `CCOC(=O)c1ccc(NC(=O)CN2CCN(C(=O)C3CCCO3)CC2)cc1` (stereo not shown), the “hERG current change (%, negative = inhibition) at 10uM” value is on record as 9.54%.

Consider `CN(Cc1cccc(F)c1)C(=O)c1ccc(NS(=O)(=O)c2ccc3[nH]c(=O)[nH]c3c2)cc1`, for which the “hERG current change (%, negative = inhibition) at 10uM” value is reported as 0.0845%. The same measure for `Nc1scc[n+]1Cc1cccc2cccnc12.[Br-]`: -12.3%. The value for `COc1ccc(N2CC(C(=O)Nc3nnc(SCc4cccnc4)s3)CC2=O)cc1` (stereo not shown) was 1.19%; that for `Cc1nn2c(-c3ccc(Cl)cc3Cl)nnc2s1` was -7.54%. The value for `CC/C(C)=N/Nc1nc2c(c(=O)[nH]c(=O)n2C)n1CCc1ccccc1` was 22.5%; that for `COCc1nnc(NC(=O)CCCOc2ccccc2OC)s1` was 9.6%. On to `Cc1ccccc1OCCSc1nc(N(C)C)nc(N(C)C)n1`, for which the “hERG current change (%, negative = inhibition) at 10uM” value turned out to be 30%. Consider `C=CCn1c(O)c(/C=N/N2CCOCC2)c(=O)[nH]c1=S`, for which the “hERG current change (%, negative = inhibition) at 10uM” value amounted to 3.15%. The value for `COc1ccc(CNC(=O)CCCSc2ccccc2)cc1` was 10.2%. The same measure for `O=C(O)c1ccc(N=Cc2c(O)n(Cc3ccc(F)cc3)c(=O)[nH]c2=O)cc1`: 2.5%; for `COc1ccc(F)cc1C(=O)C1CCCN(Cc2cnc(N3CCCC3)s2)C1` (stereo not shown): -29.4%. The value for `CC(OC(=O)c1ccc2c(=O)n3c(nc2c1)CCCCC3)C(=O)Nc1ncc(Cl)cc1Cl` (stereo not shown) was -6.83%; that for `Cc1ccc2c(c1)C1CN(C)CCC1N2C(=O)Cc1cccs1.Cl` (stereo not shown) was -46.9%. `CCS(=O)(=O)CCSC1OC(COC(C)=O)C(OC(C)=O)C(OC(C)=O)C1OC(C)=O` (stereo not shown): the “hERG current change (%, negative = inhibition) at 10uM” value worked out at 11.7%.
